# Source: PMC4336329 (PLoS ONE, 2015)
# The campaign covered roughly 310,000 compounds. About 2,200 (0.71%) showed an effect of 50% or more. Effects have a minus sign here. Some of the results follow.
# Molecular target: human ether-à-go-go-related gene (hERG) potassium channel (human, UniProt Q12809)
# Assay: primary screen, population patch clamp on CHO cells stably expressing hERG
# Chain of human ether-à-go-go-related gene (hERG) potassium channel (Q12809 whole entry, looked up): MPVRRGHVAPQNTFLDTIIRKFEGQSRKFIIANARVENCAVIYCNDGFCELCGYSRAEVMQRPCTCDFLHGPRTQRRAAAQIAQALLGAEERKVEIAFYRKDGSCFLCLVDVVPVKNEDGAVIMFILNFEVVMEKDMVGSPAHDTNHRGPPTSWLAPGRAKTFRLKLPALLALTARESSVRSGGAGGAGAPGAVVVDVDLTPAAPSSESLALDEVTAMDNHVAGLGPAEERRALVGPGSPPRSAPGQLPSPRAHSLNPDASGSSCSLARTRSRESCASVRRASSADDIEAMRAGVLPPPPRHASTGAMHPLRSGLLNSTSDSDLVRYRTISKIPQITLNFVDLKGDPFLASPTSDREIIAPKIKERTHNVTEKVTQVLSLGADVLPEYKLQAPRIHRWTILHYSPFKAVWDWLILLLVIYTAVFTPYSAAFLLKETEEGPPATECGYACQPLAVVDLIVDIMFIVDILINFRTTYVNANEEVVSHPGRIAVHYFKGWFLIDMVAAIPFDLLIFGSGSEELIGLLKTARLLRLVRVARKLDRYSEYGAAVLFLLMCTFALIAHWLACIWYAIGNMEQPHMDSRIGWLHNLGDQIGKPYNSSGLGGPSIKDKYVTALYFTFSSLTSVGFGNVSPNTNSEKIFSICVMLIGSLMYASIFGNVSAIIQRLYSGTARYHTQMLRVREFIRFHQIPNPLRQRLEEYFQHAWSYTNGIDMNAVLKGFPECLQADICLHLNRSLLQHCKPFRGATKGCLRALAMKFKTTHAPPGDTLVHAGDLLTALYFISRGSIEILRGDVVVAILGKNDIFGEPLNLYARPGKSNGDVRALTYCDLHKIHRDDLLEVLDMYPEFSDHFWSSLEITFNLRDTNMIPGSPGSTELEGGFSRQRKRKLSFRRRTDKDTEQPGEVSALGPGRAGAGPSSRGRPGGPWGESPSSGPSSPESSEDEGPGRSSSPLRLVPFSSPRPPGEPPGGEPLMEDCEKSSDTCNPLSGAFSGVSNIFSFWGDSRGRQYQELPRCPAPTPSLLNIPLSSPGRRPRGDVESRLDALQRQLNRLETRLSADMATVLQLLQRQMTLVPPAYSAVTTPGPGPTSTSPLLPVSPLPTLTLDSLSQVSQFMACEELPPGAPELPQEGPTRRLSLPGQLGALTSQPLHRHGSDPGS
row,SMILES,"hERG current change (%, negative = inhibition) at 1uM [%]"
1,CCc1ccc(C2c3[nH]c4ccccc4c3CCN2C(=O)c2cc(C)nn2C)cc1 (stereo not shown),18.4
2,Cc1ccccc1OCCSc1nnc(-c2ccncc2)n1C,-6.23
3,O=C(N/N=C/C(Br)=C/c1ccccc1)c1ccccc1F,3.95
4,COc1cc(C2C(C#N)=C(N)Oc3n[nH]c(-c4ccncc4)c32)cc(OC)c1OC (stereo not shown),2.96
5,[N-]=[N+]=CC(=O)CCCN1C(=O)c2ccccc2C1=O,10.3
6,CC(Oc1ccc(F)cc1)C(=O)Nc1nc(-c2ccccn2)cs1 (stereo not shown),-26
7,COCC(=O)Nc1cc(C)c2c(=O)oc3ccccc3c2n1,3.9
8,Cc1ccc(/C=C(\NC(=O)c2ccccc2)C(=O)OCc2ccccc2)cc1,14.8
9,O=C(C1CCN(CCCc2ccccc2)CC1)N(CCc1ccccc1)Cc1ccccc1.O=C(O)C(=O)O,-75
10,COc1ccc(CNC(=O)C(C)N(C)Cc2cccc(F)c2)cc1 (stereo not shown),-4.06
11,O=C(Cc1ccccc1)Nc1ccccc1C(=O)N1CCCCC1,12.6
12,CCc1ccc(CCC(=O)Nc2ccc(Br)cc2)o1,14.2
13,COc1cc(/C=C/C(=O)O)cc(S(=O)(=O)Nc2ccc3nc(C)sc3c2)c1OC,23.4
14,O=C(N/N=C/C=C/c1ccccc1)c1cnccn1,7.66
15,COc1ccc2c(Cl)c(-c3nnc(SCC(=O)c4ccccc4)n3C)sc2c1,17.4
16,CC(C)(C)OC(=O)NCCC(=O)N/N=C/c1ccc2nccnc2c1,13.2
17,COc1cccc(-n2c(=O)c3ccccc3n(CC(=O)NCC3CCCO3)c2=O)c1 (stereo not shown),12.6
18,Cc1nn(C)c(Cl)c1CN1CCCC(CO)(Cc2cccc(Cl)c2)C1 (stereo not shown),-22.8
19,O=S(=O)(Nc1ccccc1)c1ccc(NS(=O)(=O)c2cccs2)cc1,-5.56
20,CCCc1ccc(OCc2ccc(C(=O)O)o2)c(OC)c1,12.9
21,Cc1ccc(C(=O)NNC(=S)NCC2CCCO2)cc1[N+](=O)[O-] (stereo not shown),-27.1
22,COc1ccc2cc(C(=O)C3CCCN(C(=O)c4cccnc4)C3)ccc2c1 (stereo not shown),8.92

row,SMILES,"hERG current change (%, negative = inhibition) at 1uM [%]"
1,COc1ccc(NC(=O)CCc2nnc3ccc(NCc4ccc5c(c4)OCO5)nn23)cc1,12
2,O=C(COC(=O)CC1c2ccccc2CCN1S(=O)(=O)c1ccc(F)cc1)Nc1ccccc1 (stereo not shown),-0.444
3,CSCCC1NC(=O)N(CC(=O)Nc2ccc(N3CCCCC3)cc2)C1=O (stereo not shown),0.969
4,CCOc1cccc(CNCCO)c1OCc1ccc(Cl)cc1.Cl,-6.78
5,Cn1c(=O)c2c(-c3ccccc3)n(CCCN3CCOCC3)cc2n(C)c1=O,9.17
6,Cc1ccc(NC(=O)CS(=O)CC(=O)N(C2CCCC2)C(C)C(=O)NC2CCCCC2)cc1 (stereo not shown),4.21
7,Cc1ccccc1S(=O)(=O)Cc1ccc(C(=O)N2CCN(c3ccc(F)cc3)CC2)o1,-2.64
8,COC(/C=C/Nc1ccc(Cl)cc1)=C(C#N)C#N,-29.2
9,CCn1cc(S(=O)(=O)c2ccc(C)cc2)c(=O)c2cc(OC)ccc21,11.1
10,CN1c2ccc(Cl)cc2C(=O)NC1C1CC=CCC1 (stereo not shown),12.5
11,CCOc1ccc(CNC(=O)CCCC(=O)n2nc(C)c3ccccc32)cc1,10.6
12,Cc1nnc(N2C(=O)C(O)=C(C(=O)c3ccco3)C2c2ccc(C(C)C)cc2)s1 (stereo not shown),15.8
13,CN(C)S(=O)(=O)c1ccc(C(=O)OCC(=O)NC(=O)NCc2ccccc2)cc1,1.71
14,COc1cc(CCC(=O)Nc2nnc(C)s2)cc(OC)c1OC,15
15,CC1CCCC(C)N1CCNC(=O)C1CCN(S(=O)(=O)N2CCCCC2)CC1 (stereo not shown),-1.87
16,O=C(NCC1CCCN(C(=O)c2cscn2)C1)c1ccc(-c2ccccc2)cc1 (stereo not shown),5.36
17,Cn1c(C(=O)O)cnc1Sc1ncc(C(F)(F)F)cc1Cl,15.1
18,C[C@@H]1O[C@@H](O[C@@H]2C(=O)c3c(O)cc(O)cc3O[C@H]2c2ccc(O)c(O)c2)[C@H](O)[C@H](O)[C@H]1O,10.6
19,Cc1ccccc1OCCC(=O)OCC(=O)N1c2ccccc2NC(=O)C1(C)C,2.09
20,CC(C)C(C(=O)O)N1C(=O)/C(=C/c2cccn2C)SC1=S (stereo not shown),6.06
21,O=C(Nc1cc(NC(=O)c2ccccc2F)ccc1Cl)c1ccccc1,14.3
